In PubChem BioAssay AID485281 (National Center for Advancing Translational Sciences (NCATS), 2010):
Out of some 350,000 compounds screened, about 260 (0.074%) were called active. The shares of active, inactive and inconclusive entries below differ from those in the screen. Calls follow the shape of the dose curve; as a rule, active = well fitted inhibition curve with a large enough effect; inconclusive = small, poorly fitted or top-dose-only effect; inactive = no such curve, though single readings can be large or run the other way. A potency beside an inconclusive call is a rough fit, not a confirmed value.

Target: Ferritin light chain (Equus caballus) (UniProt P02791)
Chain of UniProt P02791 (P02791 whole entry, looked up): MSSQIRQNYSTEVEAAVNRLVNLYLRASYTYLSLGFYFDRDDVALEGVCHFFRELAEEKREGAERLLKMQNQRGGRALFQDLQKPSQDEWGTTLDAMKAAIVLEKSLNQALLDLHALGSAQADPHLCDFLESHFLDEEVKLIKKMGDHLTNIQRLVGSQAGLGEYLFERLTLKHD
Test: qHTS Assay for Identification of Novel General Anesthetics; also: nearly all actives have a fitted effect of over 20% in size
Conditions: apoferritin/1-aminoanthracene competitive binding, fluorescence; series mostly up to 77.5 µM
How it was run: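 Concentration-response curves derived by four-parameter Hill fitting of normalized fluorescence, where compounds displaced 1-AMA from 10 uM horse apoferritin following a brief 10 min room-temperature incubation; propofol titration acted as positive control.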
Potency is read from the fitted curve at half-maximal effect; tags tell the direction and shape of the fitted curve.

Structure (SMILES)	Potency
Cc1cc(C)cc(NC(=S)NCCN(C2CCCCC2)C2CCCC2)c1	inconclusive: 35.5 µM [inhibitor, partial curve]
O=[N+]([O-])c1ccc(N2CCN(Cc3cccc([N+](=O)[O-])c3)CC2)cc1	inconclusive: 35.5 µM [inhibitor, single point]
CCN(C(=O)CCc1ccccc1)C1CCCCC1	inconclusive: 39.8 µM [inhibitor, single point]
CS(=O)(=O)c1ccc(C(=O)Nc2ccc(N3CCOCC3)cc2)c(Cl)c1	inactive
CCOc1cc(C)c(S(=O)(=O)Nc2ccc3cn[nH]c3c2)cc1C	inconclusive: 35.5 µM [inhibitor, partial curve]
NC(=O)c1cc(-c2ccccc2)sc1NC(=O)Cc1ccc(S(=O)(=O)N2CCOCC2)s1	inconclusive: 28.2 µM [inhibitor, partial curve]
Cc1ccc(C(=O)NCCCNc2ccccc2[N+](=O)[O-])cc1	inconclusive: 22.4 µM [inhibitor, partial curve]
Cc1c(NC(=O)c2ccc([N+](=O)[O-])o2)cccc1-c1nc2ncccc2o1	inactive
O=C(NCc1ccc2c(c1)OCO2)c1cc(COc2c(F)cccc2F)on1	inconclusive: 7.08 µM [inhibitor, full curve]
Oc1c(N=Nc2ccccn2)ccc2ccccc12	inconclusive: 15.8 µM [inhibitor, partial curve]
CC1CCN(CC(=O)Nc2ccc(N3CCCCCC3)cc2)CC1	inconclusive: 15.8 µM [inhibitor, partial curve]
O=C1c2[nH]nc(-c3ccccc3O)c2C(c2cccc(Cl)c2)N1Cc1cccnc1 (stereo unspecified)	inconclusive: 12.6 µM [inhibitor, partial curve]
CCC(=O)CC	inactive
CCOc1ccc(CCNC(=O)c2cn(CC)c3ccc(S(=O)(=O)N4CCCCCC4)cc3c2=O)cc1OCC	inconclusive: 8.91 µM [inhibitor, partial curve]
O=C(O)COc1ccccc1/C=N/NC(=O)Cc1csc(Nc2cccc(C(F)(F)F)c2)n1	inconclusive: 15.8 µM [inhibitor, partial curve]
O=C(/C=C/c1ccco1)c1ccc(NC(=O)C23CC4CC(CC(C4)C2)C3)cc1	inconclusive: 35.5 µM [inhibitor, partial curve]
CCOC(=O)c1sc(NC(=O)CSc2n[nH]c(-c3ccccc3)n2)c(C#N)c1C	inactive
Oc1cccc2ccc(/C=C/c3c(F)cccc3Cl)nc12	inconclusive: 28.2 µM [inhibitor, partial curve]
O=C(c1ccc(CSc2nc3ccncc3n2Cc2cccc(F)c2)cc1)N1CCCCC1	inconclusive: 31.6 µM [inhibitor, partial curve]
O=c1[nH][nH]c(-c2ccccc2O)c1C(C[N+](=O)[O-])c1ccc(Br)cc1 (stereo unspecified)	inactive
COc1cccc(N2CC(C(=O)Nc3nnc(SCCC4OCCO4)s3)CC2=O)c1 (stereo unspecified)	inconclusive: 31.6 µM [inhibitor, partial curve]
COc1ccc(-c2cn(-c3ccc(C)c(C)c3)c(=S)[nH]2)cc1OC	inactive

Structure (SMILES)	Potency
C#Cc1cccc(C(=O)N2CCCC(C(=O)c3ccc(OC)cc3C)C2)c1 (stereo unspecified)	inconclusive: 31.6 µM [inhibitor, partial curve]
COc1ccc(-c2nn(C)c(=O)c3ccccc23)cc1CNC(=O)c1ccco1	inactive
COc1ccc2c(c1OC)C(=O)N(c1cccc(C(F)(F)F)c1)C2	inactive
N=c1n(CCN2CCCCC2)c2ccccc2n1CC(O)COc1ccc(Cl)cc1Cl (stereo unspecified)	inconclusive: 3.98 µM [inhibitor, partial curve]
CCOc1cc(C(c2c(C)[nH][nH]c2=O)c2c(C)[nH][nH]c2=O)ccc1OCc1ccc([N+](=O)[O-])cc1	inconclusive: 25.1 µM [inhibitor, partial curve]
Cc1ccc2c(=O)cc(C(=O)N(Cc3ccc(N(C)C)cc3)C3CCS(=O)(=O)C3)oc2c1 (stereo unspecified)	inconclusive: 35.5 µM [inhibitor, partial curve]
Cc1ccc(-c2nc3ncccc3o2)cc1NC(=O)CC(C)C	inactive
C/C(CC(=O)NCc1ccco1)=N\NC(=O)Cc1ccc(Cl)cc1	inconclusive: 28.2 µM [inhibitor, partial curve]
CC(=O)c1ccc(OCCCC(=O)N2CCN(S(=O)(=O)c3cccs3)CC2)cc1	inconclusive: 28.2 µM [inhibitor, partial curve]
CCC1(C)Cc2c(sc3nc(NN)n(C)c(=O)c23)CO1 (stereo unspecified)	inconclusive: 35.5 µM [inhibitor, partial curve]
O=C(Nc1ccc(Cc2nc3ccccc3s2)cc1)c1ccncc1	inconclusive: 25.1 µM [inhibitor, single point]
Nc1cc(=O)nc(SCC(=O)N(C2CCCCC2)C2CCCCC2)n1-c1ccccc1	inconclusive: 50.1 µM [inhibitor, single point]
O=c1[nH]c2c(s1)C(c1ccc(O)cc1)C1C3CCC(C3)C1S2 (stereo unspecified)	inconclusive: 56.2 µM [inhibitor, single point]
O=c1cc(CSc2nnc(COc3ccccc3Cl)o2)nc2sccn12	inconclusive: 31.6 µM [inhibitor, single point]
CCc1cccc2c(C(=O)COC(=O)/C=C/c3ccccc3OC)c[nH]c12	inconclusive: 14.1 µM [inhibitor, partial curve, poor fit]
O=c1nc2n(c3c1oc1ccccc13)Cc1ccccc1-2	inconclusive: 44.7 µM [inhibitor, single point]
O=C(Nc1ccc(-c2nnn(CC(=O)N3CCN(C(=O)c4ccco4)CC3)n2)cc1)c1ccc(F)cc1	inconclusive: 25.1 µM [inhibitor, partial curve]
O=C(CCC1CCCC1)NC1CCCCC1	inconclusive: 20 µM [inhibitor, partial curve]
CCCOc1ccc(C2c3c(oc4cc(C)c(C)cc4c3=O)C(=O)N2CCCN2CCOCC2)cc1 (stereo unspecified)	active: 35.5 µM
Cc1ccc(C(=O)c2c(NC(=O)CSc3nnc(N)s3)sc3c2CCCC3)cc1	inconclusive: 28.2 µM [inhibitor, partial curve]
Brc1ccc(-c2csc(/N=C/N3CCCC3)n2)cc1	inactive
Cc1ccc(C(=O)COC(=O)CNC(=O)C(c2ccccc2)c2ccccc2)cc1[N+](=O)[O-]	inconclusive: 25.1 µM [inhibitor, partial curve]

Structure (SMILES)	Potency
NC(=O)c1ccc(C(F)(F)F)n(Cc2ccccc2Cl)c1=O	inconclusive: 31.6 µM [inhibitor, partial curve]
Cc1c(/C=N/O)sc2ccccc12	inconclusive: 28.2 µM [inhibitor, partial curve]
O=C(CCN1C(=O)/C(=C/c2ccccc2)SC1=S)NCCc1ccc(O)cc1	inconclusive: 20 µM [inhibitor, partial curve]
O=c1c2ccccc2nnn1Cc1ccccn1	inconclusive: 28.2 µM [inhibitor, partial curve]
Cc1cccc(OCc2nnc(SCC(=O)N3CCCC3)o2)c1	inconclusive: 31.6 µM [inhibitor, single point]
S=c1[nH]nc(-c2ccc(Cl)cc2)n1/N=C/c1ccco1	inactive
C=CCn1c(C23CC4CC(CC(C4)C2)C3)n[nH]c1=S	inconclusive: 28.2 µM [inhibitor, partial curve]
CC(C)c1ccc(NCCC(=O)c2cccs2)cc1	inconclusive: 50.1 µM [inhibitor, single point]
CSc1ccc(/C=C2/C(C)=C(CC(=O)O)c3cc(F)ccc32)cc1	inactive
CC(=O)c1c(C)nc2ccc([N+](=O)[O-])cc2c1-c1ccccc1	inconclusive: 31.6 µM [inhibitor, partial curve]
C=CCC1(CC=C)CCCN1C(=O)CC1C(=O)NCCN1Cc1cc(OC)cc(OC)c1 (stereo unspecified)	inconclusive: 44.7 µM [inhibitor, single point]
CCN1C(=O)/C(=C/c2ccc(C)s2)NC1=S	inconclusive: 39.8 µM [inhibitor, partial curve]
O=C(Nc1ccc(F)c(Cl)c1)c1ccc2c(=O)n3c(nc2c1)CCCCC3	inconclusive: 10 µM [inhibitor, partial curve]
CC(C)(C)c1ccc(C(=O)Nc2ccc(C(=O)N3CCCC3)cc2)cc1	inconclusive: 39.8 µM [inhibitor, single point]
Cc1nc(CSc2nsc(/C=C/N(C)C)c2C#N)cs1	inconclusive: 35.5 µM [inhibitor, partial curve]
Cc1ccc(C)c(CN2C(=O)c3ccccc3S(=O)(=O)c3ccc(C(=O)N4CCN(c5ccccc5F)CC4)cc32)c1	inconclusive: 15.8 µM [inhibitor, partial curve]
C=CCNC(=O)C1(c2ccccc2)CC1(Cl)Cl (stereo unspecified)	inconclusive: 39.8 µM [inhibitor, partial curve]
O=C(CSCc1cccc(Br)c1)N/N=C/c1ccc2c(c1)OCO2	inconclusive: 11.2 µM [inhibitor, partial curve]
O=C(COC(=O)c1n[nH]c2ccccc12)NCc1ccccc1	inconclusive: 35.5 µM [inhibitor, partial curve]
O=C1/C(=C/c2ccsc2)N2CCC1CC2	inconclusive: 25.1 µM [inhibitor, partial curve]
FC(F)(F)c1cccc(CNc2ncccc2-c2nc3cc(Cl)ccc3o2)c1	inactive
O=C(CSCc1c(F)cccc1Cl)NCCc1ccccc1	inconclusive: 12.6 µM [inhibitor, partial curve]
